The other results are listed elsewhere or left out.

Test [1] relates to HSkMC (human skeletal muscle cells). The test is described as follows: cytotoxicity call (relative viability < 0.9). The conditions noted are these: 10 µM.
Test [2] has as its system HepG2. Nature of the test: cytotoxicity call (relative viability < 0.9). The conditions noted are these: 10 µM.
Test [3] concerns S. aureus RN4220. The test is described as follows: growth inhibition call (relative growth <= 0.2). The settings on record: 50 µM.

`C[C@H](CO)N1C[C@H](C)[C@@H](CN(C)Cc2ccc(C(F)(F)F)cc2)Oc2ccc(NC(=O)Nc3ccc(C(F)(F)F)cc3)cc2CC1=O`: the cytotoxicity call in test [1] and in test [2] was “active” throughout. Besides, the growth inhibition call in test [3] was “inactive”.

For `CC(C)c1onc(-c2c(Cl)cccc2Cl)c1COc1ccc(/C=C/c2cccc(C(=O)O)c2)c(Cl)c1`, the cytotoxicity call in test [1] and in test [2] was “inactive” in each case. Also, the growth inhibition call in test [3] is “active”.

As for `CC(C)NC(=O)N(C)C[C@H]1Oc2ccc(NS(=O)(=O)c3ccccc3)cc2C(=O)N([C@H](C)CO)C[C@H]1C`, the cytotoxicity call in test [1] and in test [2] was “inactive” each time. Moreover, in test [3], the growth inhibition call was “inactive”.

Consider `NCCC(O)C(=O)NC1CC(N)C(OC2OC(CN)C(O)C(O)C2O)C(O)C1OC1OC(CO)C(O)C(N)C1O.O` (stereo not drawn), for which the cytotoxicity call in test [1] and in test [2] was “inactive” in each case. Besides, the growth inhibition call in test [3] was “inactive”.

Regarding `NCCCNCCCCNCCCN`, the cytotoxicity call in test [1] and in test [2] was “inactive” in each case. Besides, the growth inhibition call in test [3] was “inactive”.

Regarding `CN(C)C(=O)[C@H]1C[C@@H]2CCN(S(C)(=O)=O)C[C@H]2O1`, the cytotoxicity call in test [1] and in test [2] was “inactive” throughout. In addition, in test [3], the growth inhibition call was “inactive”.

For the molecule `O=C(O)c1ccc2nncn2c1`, the cytotoxicity call in test [1] and in test [2] was “inactive” throughout. Also, the growth inhibition call in test [3] is “inactive”.

For the molecule `COCC(=O)Nc1ccc2c(c1)C(=O)N(C)[C@@H]1CC[C@H](CC(=O)NC3Cc4ccccc4C3)O[C@@H]1CO2`, the cytotoxicity call in test [1] and in test [2] was “inactive” in each case. The growth inhibition call in test [3] is “inactive”.

Take `Cc1noc(C)c1S(=O)(=O)Nc1ccc2c(c1)C(=O)N([C@@H](C)CO)C[C@@H](C)[C@@H](CN(C)Cc1ccc(C(=O)Nc3ccccc3N)cc1)OCCCC[C@H](C)O2`: the cytotoxicity call in test [1] and in test [2] was “inactive” each time. Moreover, the growth inhibition call in test [3] is “inactive”.

For `C[C@@H]1CN([C@@H](C)CO)C(=O)c2cccc(NC(=O)C3CC3)c2O[C@@H]1CN(C)S(=O)(=O)c1ccccc1`, the cytotoxicity call in test [1] and in test [2] was “inactive” in each case. The growth inhibition call in test [3] was “inactive”.

Turning to `CCN(CC)CCCCNc1ncc2cc(-c3c(Cl)cccc3Cl)c(NC(=O)NC(C)(C)C)nc2n1`, the cytotoxicity call in test [1] is “inactive”. Besides, the cytotoxicity call in test [2] is “active”. In addition, the growth inhibition call in test [3] is “inactive”.

`COCC(=O)Nc1ccc2c(c1)OC[C@@H](C)N(C(=O)Cc1cccnc1)C[C@@H](C)[C@@H](OC)CN(C)C2=O`: the cytotoxicity call in test [1] and in test [2] was “inactive” each time. Further, the growth inhibition call in test [3] was “inactive”.

`O=S1(=O)C[C@H](NCCO)[C@@H](O)C1`: the cytotoxicity call in test [1] and in test [2] was “inactive” in each case. Further, in test [3], the growth inhibition call is “inactive”.

As for `O=C(C[C@H]1CC[C@@H]2[C@H](COC[C@H](O)CN2S(=O)(=O)c2ccc(F)cc2)O1)NCc1ccc(Cl)c(Cl)c1`, the cytotoxicity call in test [1] and in test [2] was “inactive” throughout. The growth inhibition call in test [3] is “inactive”.

In the case of `C[C@H](CO)N1C[C@H](C)[C@@H](CN(C)C(=O)Nc2ccccc2)OCCCC[C@H](C)Oc2ccc(NC(=O)Nc3cccc4ccccc34)cc2C1=O`, the cytotoxicity call in test [1] and in test [2] was “inactive” each time. In test [3], the growth inhibition call was “inactive”.

As to `CC(C)NC(=O)Nc1cccc2c1O[C@H](CN(C)C(=O)Nc1ccc3c(c1)OCO3)[C@@H](C)CN([C@H](C)CO)C2=O`, the cytotoxicity call in test [1] and in test [2] was “inactive” each time. Moreover, the growth inhibition call in test [3] was “inactive”.

Consider `COc1ccc(S(=O)(=O)Nc2ccc3c(c2)C(=O)N([C@@H](C)CO)C[C@@H](C)[C@H](CN(C)Cc2ccc(Cl)c(Cl)c2)OCCCC[C@@H](C)O3)cc1`, for which the cytotoxicity call in test [1] and in test [2] was “active” in each case. The growth inhibition call in test [3] is “inactive”.

`C[C@H](CO)N1C[C@H](C)[C@@H](CN(C)Cc2ccncc2)Oc2c(NS(=O)(=O)c3cn(C)cn3)cccc2C1=O`: the cytotoxicity call in test [1] and in test [2] was “inactive” each time. Also, the growth inhibition call in test [3] was “inactive”.

Regarding `Cc1noc(C)c1S(=O)(=O)Nc1ccc2c(c1)C(=O)N([C@H](C)CO)C[C@H](C)[C@@H](CN(C)Cc1ccc(C(F)(F)F)cc1)OCCCC[C@H](C)O2`, the cytotoxicity call in test [1] and in test [2] was “inactive” each time. In test [3], the growth inhibition call is “inactive”.

In the case of `C[C@H]1CN([C@@H](C)CO)C(=O)c2cc(NS(=O)(=O)c3ccc(F)cc3)ccc2O[C@H]1CN(C)Cc1ccc(Oc2ccccc2)cc1`, the cytotoxicity call in test [1] and in test [2] was “inactive” in each case. Moreover, the growth inhibition call in test [3] was “inactive”.

As to `C[C@@H]1CN([C@H](C)CO)C(=O)c2cccc(NC(=O)c3nc4ccccc4s3)c2O[C@H]1CN(C)Cc1ccc(Oc2ccccc2)cc1`, the cytotoxicity call in test [1] and in test [2] was “inactive” each time. The growth inhibition call in test [3] was “inactive”.

On to `CS(=O)(=O)Cc1nc2ccccc2oc1=O`, for which the cytotoxicity call in test [1] and in test [2] was “inactive” in each case. Moreover, in test [3], the growth inhibition call is “inactive”.

Take `C[C@H](CO)N1C[C@H](C)[C@@H](CN(C)S(=O)(=O)c2ccc(-c3ccccc3)cc2)OCc2cnnn2CCCC1=O`: the cytotoxicity call in test [1] and in test [2] was “inactive” each time. In addition, in test [3], the growth inhibition call is “inactive”.

As for `C[C@@H]1CN([C@H](C)CO)C(=O)c2cc(NC(=O)C3CCCCC3)ccc2O[C@@H](C)CCCCO[C@@H]1CN(C)Cc1ccc2c(c1)OCO2`, in test [1], the cytotoxicity call is “inactive”. Moreover, in test [2], the cytotoxicity call is “active”. For the same molecule, the growth inhibition call in test [3] was “inactive”.

Take `Cc1ccc(S(=O)(=O)Nc2ccc3c(c2)C(=O)N(C)[C@@H]2CC[C@H](CC(=O)NCCc4ccncc4)O[C@H]2CO3)cc1`: the cytotoxicity call in test [1] and in test [2] was “inactive” in each case. Moreover, the growth inhibition call in test [3] was “inactive”.

As for `COc1ccc2c3c(n(c2c1)C)[C@H](CO)N(C[C@]13CN(C1)S(=O)(=O)C)C(=O)CN(C)C`, the cytotoxicity call in test [1] and in test [2] was “inactive” throughout. The growth inhibition call in test [3] was “inactive”.

For the origin of these results see the antibiotic and cytotoxicity screens of Wong et al. (2023).
